Common to all, as to test: glycan array binding signal (z-score within array); higher = stronger binding
Holding throughout (conditions): glycan notation: IUPAC condensed, linker removed

One experiment addresses Neu5Ac(a2-3)GalNAc. A digest of the protocol: (§1)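 Columns mapping to the same glycan were averaged after glycan names were converted to IUPAC-condensed notation. The data come from 3228 arrays in the Consortium for Functional Glycomics database, limited to those with an available protein sequence. Binding is reported as a within-array Z-score averaged across arrays of one protein sequence and across linkers.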

For experiment [1], the target named is Neu5Ac(a2-3)GalNAc(b1-4)GlcNAc. A digest of the protocol: as §1
Experiment [2] addresses Neu5Ac(a2-3)[GalNAc(b1-4)]Gal(b1-4)Glc. The essentials:
as §1

Experiment [3] deals with Neu5Ac(a2-3)[GalNAc(b1-4)]Gal(b1-4)GlcNAc. A digest of the protocol: as §1
In experiment [4] the target is Neu5Ac(a2-3)[GalNAc(b1-4)]Gal(b1-4)GlcNAc(b1-3)GalNAc. A digest of the protocol: as §1
Experiment [5] deals with Neu5Ac(a2-3)[Neu5Ac(a2-6)]GalNAc. The essentials: as §1
Another experiment has as its target Neu5Ac(a2-6)Gal. The essentials:
as §1

For experiment [6], the target named is Neu5Ac(a2-6)Gal(b1-3)GlcNAc(b1-3)[Gal(b1-4)GlcNAc(b1-6)]Gal(b1-4)Glc. A digest of the protocol: as §1
Another experiment concerns the target Neu5Ac(a2-6)Gal(b1-4)Glc. The essentials:
as §1

Experiment [7] has as its target Neu5Ac(a2-6)Gal(b1-4)GlcNAc. A digest of the protocol:
as §1

The target in experiment [8] is Neu5Ac(a2-6)Gal(b1-4)GlcNAc(b1-2)Man. A digest of the protocol:
as §1

For experiment [9], the target named is Neu5Ac(a2-6)Gal(b1-4)GlcNAc(b1-2)Man(a1-3)Man(b1-4)GlcNAc(b1-4)GlcNAc. A digest of the protocol:
as §1

The target in experiment [10] is Neu5Ac(a2-6)Gal(b1-4)GlcNAc(b1-2)Man(a1-3)[Gal(b1-4)GlcNAc(b1-2)Man(a1-6)]Man(b1-4)GlcNAc(b1-4)GlcNAc. A digest of the protocol: as §1
Experiment [11] addresses Neu5Ac(a2-6)Gal(b1-4)GlcNAc(b1-2)Man(a1-3)[GlcNAc(b1-2)Man(a1-6)]Man(b1-4)GlcNAc(b1-4)GlcNAc. The essentials:
as §1

Experiment [12] concerns the target Neu5Ac(a2-6)Gal(b1-4)GlcNAc(b1-2)Man(a1-3)[GlcNAc(b1-4)][Neu5Ac(a2-6)Gal(b1-4)GlcNAc(b1-2)Man(a1-6)]Man(b1-4)GlcNAc(b1-4)GlcNAc. A digest of the protocol: as §1
The target in experiment [13] is Neu5Ac(a2-6)Gal(b1-4)GlcNAc(b1-2)Man(a1-3)[Man(a1-6)]Man(b1-4)GlcNAc(b1-4)GlcNAc. The essentials:
as §1

For experiment [14], the target named is Neu5Ac(a2-6)Gal(b1-4)GlcNAc(b1-2)Man(a1-3)[Neu5Ac(a2-3)Gal(b1-4)GlcNAc(b1-2)Man(a1-6)]Man(b1-4)GlcNAc(b1-4)GlcNAc. A digest of the protocol:
as §1

Experiment [15] concerns the target Neu5Ac(a2-6)Gal(b1-4)GlcNAc(b1-2)Man(a1-3)[Neu5Ac(a2-6)Gal(b1-4)GlcNAc(b1-2)Man(a1-6)]Man(b1-4)GlcNAc(b1-4)GlcNAc. The essentials: as §1
In experiment [16] the target is Neu5Ac(a2-6)Gal(b1-4)GlcNAc(b1-2)Man(a1-3)[Neu5Ac(a2-6)Gal(b1-4)GlcNAc(b1-2)Man(a1-6)]Man(b1-4)GlcNAc(b1-4)[Fuc(a1-6)]GlcNAc. A digest of the protocol:
as §1

Experiment [17] concerns the target Neu5Ac(a2-6)Gal(b1-4)GlcNAc(b1-2)Man(a1-6)Man(b1-4)GlcNAc(b1-4)GlcNAc. A digest of the protocol:
as §1

For experiment [18], the target named is Neu5Ac(a2-6)Gal(b1-4)GlcNAc(b1-2)Man(a1-6)[Gal(b1-4)GlcNAc(b1-2)Man(a1-3)]Man(b1-4)GlcNAc(b1-4)GlcNAc. A digest of the protocol:
as §1

In experiment [19] the target is Neu5Ac(a2-6)Gal(b1-4)GlcNAc(b1-2)Man(a1-6)[GlcNAc(b1-2)Man(a1-3)]Man(b1-4)GlcNAc(b1-4)GlcNAc. A digest of the protocol:
as §1

The list shows a part of the results.

B1: EULS2 M4 (Oryza sativa) (protein)
chain: MVYCRANPNYAMTARNGAVVLAPANPKDEYQHWIKDMRWSTSIKDEEGYPAFALVNKATGQAIKHSLGQSHPVRLVPYNPEVMDESVLWTESRDVGNGFRCIRMVNNIYLNFDAFHGDKYHGGVRDGTDIVLWKWCEGDSLRWKIQPYYILEQKLISEEDLNSAVDHHHHHH
Take B1: the “glycan array binding signal (z-score)” value in the experiment with Neu5Ac(a2-3)GalNAc is 0.083; in experiment [1], 0.042; in experiment [2], -0.438; in experiment [3] it was -0.57; in experiment [4] it was -0.408; in experiment [5], -0.347. For the same molecule, the “glycan array binding signal (z-score)” value with Neu5Ac(a2-6)Gal was 0.435; in experiment [6], -0.674; with Neu5Ac(a2-6)Gal(b1-4)Glc it was -0.926; in experiment [7] it was 0.006; in [8], -0.431; in [9], -0.572. Also, the “glycan array binding signal (z-score)” value in experiment [10] was -0.477; in [11], -0.497; in experiment [12], -0.167; in [13] it was -0.489; in experiment [14] it was 1.15; in [15], 1.08. The “glycan array binding signal (z-score)” value in [16] is -0.557; in experiment [17], -0.664; in experiment [18], -0.612; in [19], -0.559.
